In the supplement of paper PMC4967469:

Experiments:
Test in all cases: Viability of human cancer cell lines after 72 h of drug (GDSC screen)
[1] = compound: COc1cc(O)c2c(c1)/C=C/C[C@H](O)[C@H](O)C(=O)/C=C\C[C@H](C)OC2=O [(5Z)-7-Oxozeaenol]; conditions: top dose 10 µM; top dose inferred
Method: (§1)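 Human cancer cell lines in 384-well plates, medium with 10% serum, drug for 72 h over a 256-fold dose range (nine 2-fold or five 4-fold steps up to the top dose). Adherent lines were fixed and stained with the nucleic acid dye Syto60, suspension lines read with resazurin; signal relative to control wells, capped at 0 and 100%. One two-parameter sigmoid per drug and line, fitted in a mixed model over all curves with the slope shared within a line.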

[2] = compound: CCn1c(-c2nonc2N)nc2cnc(Oc3cccc(NC(=O)c4ccc(OCCN5CCOCC5)cc4)c3)cc21 [GSK269962A]; conditions: top dose 5 µM; screen: GDSC drug entry 1192; top dose inferred
Method: as §1

[3] = compound: Cc1cnc(-c2cnc(NCCNc3ccc(C#N)cn3)nc2-c2ccc(Cl)cc2Cl)[nH]1 [CHIR-99021]
Method: as §1

[4] = compound: C=CC(=O)Nc1cc(-n2c(=O)ccc3cnc4ccc(-c5cn[nH]c5)cc4c32)ccc1C [QL-X-138]; conditions: top dose 10.24 µM; top dose inferred
Method: as §1

[5] = compound: COc1cc2ncnc(-n3nc(-c4ccccn4)nc3N)c2cc1OC [CP466722]; conditions: top dose 16 µM; top dose inferred
Method: as §1

[6] = compound: Cc1ccc(F)c(NC(=O)Nc2ccc(-c3cccc4[nH]nc(N)c34)cc2)c1 [ABT-869]; conditions: top dose 1.024 µM; top dose inferred
Method: as §1

[7] = compound: C[C@]1(c2nc3c(C(N)=O)cccc3[nH]2)CCCN1 [ABT-888]; conditions: top dose 5 µM; top dose inferred
Method: as §1

[8] = compound: COc1nc(C)cnc1NS(=O)(=O)c1cccnc1-c1ccc(-c2nnco2)cc1 [Zibotentan]; conditions: top dose 20 µM; top dose inferred
Method: as §1

[9] = compound: C/C=C(/C)C(=O)O[C@H]1C(C)=C2[C@H]([C@@H]1OC(=O)CCCCCCC)[C@@](C)(OC(C)=O)C[C@H](OC(=O)CCC)[C@@]1(O)[C@H]2OC(=O)[C@@]1(C)O [Thapsigargin]; conditions: top dose 0.512 µM; top dose inferred
Method: as §1

[10] = compound: COc1cc(N2CCC(O)CC2)ccc1Nc1cc(Nc2ccccc2S(=O)(=O)C(C)C)c2cc[nH]c2n1 [MPS-1-IN-1]; conditions: top dose 20 µM; top dose inferred
Method: as §1

[11] = compound: O=c1cc(-c2cccc3c2Sc2ccccc2S3)oc(N2CCOCC2)c1 [KU-55933]; conditions: top dose 10 µM
Method: as §1

[12] = top dose 2.56 µM, screen: GDSC drug entry 154
[13] = top dose 10 µM, screen: GDSC drug entry 1241, top dose inferred

Row | Cell Line | AUC [1] | IC50 [1] | AUC [2] | IC50 [2] | AUC [3, 12] | IC50 [3, 12] | AUC [3, 13] | IC50 [3, 13] | AUC [4] | IC50 [4] | AUC [5] | IC50 [5] | AUC [6] | IC50 [6] | AUC [7] | IC50 [7] | AUC [8] | IC50 [8] | AUC [9] | IC50 [9] | AUC [10] | IC50 [10] | AUC [11] | IC50 [11]
1 | ABC-1 (lung adenocarcinoma, adherent) | 0.694 | 2.47 µM | 0.833 | 4.2 µM | 0.983 | > 2.56 µM | 0.98 | > 10 µM | 0.627 | 1.55 µM | 0.784 | 8.35 µM | 0.966 | > 1.02 µM | 0.963 | > 5 µM | 0.971 | > 20 µM | 0.143 | < 0.002 µM | 0.847 | 19.6 µM | – | –
2 | ACHN (kidney, adherent) | 0.67 | 2 µM | 0.885 | > 5 µM | 0.918 | > 2.56 µM | 0.876 | > 10 µM | 0.874 | > 10.2 µM | 0.817 | 10.6 µM | 0.98 | > 1.02 µM | 0.979 | > 5 µM | 0.981 | > 20 µM | 0.441 | 0.0216 µM | 0.953 | > 20 µM | – | –
3 | CAKI-1 (kidney, adherent) | 0.672 | 2.41 µM | 0.809 | 4.42 µM | 0.899 | > 2.56 µM | 0.973 | > 10 µM | 0.811 | 9.21 µM | 0.699 | 4.85 µM | 0.961 | > 1.02 µM | 0.945 | > 5 µM | 0.972 | > 20 µM | 0.631 | 0.0885 µM | 0.957 | > 20 µM | – | –
4 | G-MEL (melanoma, adherent) | 0.059 | < 0.0391 µM | 0.813 | 2.65 µM | 0.986 | > 2.56 µM | 0.899 | > 10 µM | 0.582 | 1.07 µM | 0.826 | 9.51 µM | 0.984 | > 1.02 µM | 0.933 | > 5 µM | 0.986 | > 20 µM | 0.535 | 0.0399 µM | 0.94 | > 20 µM | – | –
5 | HMV-II (melanoma, adherent) | 0.336 | 0.197 µM | 0.901 | > 5 µM | 0.913 | > 2.56 µM | 0.926 | > 10 µM | 0.728 | 3.35 µM | 0.979 | > 16 µM | 0.974 | > 1.02 µM | 0.973 | > 5 µM | 0.978 | > 20 µM | 0.279 | 0.00646 µM | 0.894 | > 20 µM | – | –
6 | HT-29 (large intestine, adherent) | 0.567 | 0.954 µM | 0.908 | > 5 µM | 0.981 | > 2.56 µM | 0.959 | > 10 µM | 0.756 | 3.5 µM | – | – | 0.971 | > 1.02 µM | 0.988 | > 5 µM | 0.987 | > 20 µM | 0.201 | 0.00419 µM | 0.832 | 12.7 µM | – | –
7 | MCF7 (breast, adherent) | 0.746 | 3.28 µM | 0.844 | 3.8 µM | 0.954 | > 2.56 µM | 0.859 | 8.78 µM | 0.985 | > 10.2 µM | – | – | 0.982 | > 1.02 µM | 0.986 | > 5 µM | 0.986 | > 20 µM | 0.046 | < 0.002 µM | 0.986 | > 20 µM | – | –
8 | NCI-H1734 (lung adenocarcinoma, adherent) | – | – | – | – | – | – | – | – | 0.807 | 5.9 µM | 0.874 | > 16 µM | 0.98 | > 1.02 µM | 0.98 | > 5 µM | 0.985 | > 20 µM | 0.27 | 0.00658 µM | 0.927 | > 20 µM | – | –
9 | NCI-H2030 (lung adenocarcinoma, adherent) | 0.693 | 2.37 µM | 0.849 | 4.6 µM | 0.982 | > 2.56 µM | 0.967 | > 10 µM | 0.703 | 2.61 µM | 0.749 | 5.82 µM | 0.976 | > 1.02 µM | – | – | 0.976 | > 20 µM | 0.266 | 0.00619 µM | 0.945 | > 20 µM | 0.876 | > 10 µM
10 | NCI-H2085 (lung adenocarcinoma, adherent) | 0.758 | 3.73 µM | 0.951 | > 5 µM | 0.985 | > 2.56 µM | 0.954 | > 10 µM | 0.709 | 2.64 µM | 0.796 | 8.18 µM | 0.976 | > 1.02 µM | – | – | 0.986 | > 20 µM | 0.312 | 0.00907 µM | 0.96 | > 20 µM | 0.912 | > 10 µM
11 | NUGC-3 (stomach, adherent) | 0.66 | 1.85 µM | 0.946 | > 5 µM | 0.974 | > 2.56 µM | 0.98 | > 10 µM | 0.871 | > 10.2 µM | 0.938 | > 16 µM | 0.975 | > 1.02 µM | – | – | 0.983 | > 20 µM | 0.208 | 0.00389 µM | 0.947 | > 20 µM | 0.901 | > 10 µM
12 | OAW-28 (ovary, adherent) | 0.802 | 6.49 µM | 0.977 | > 5 µM | 0.917 | > 2.56 µM | 0.977 | > 10 µM | 0.831 | 9.01 µM | 0.896 | > 16 µM | 0.983 | > 1.02 µM | – | – | 0.98 | > 20 µM | 0.579 | 0.0557 µM | 0.918 | > 20 µM | 0.967 | > 10 µM

A lower IC50 marks a more sensitive line; fits outside the tested doses are given as limits. For AUC the same curve is integrated over the 256-fold range of doses and scaled to a fraction; it is 1 without any effect and falls as sensitivity rises. For part of these data: Where the top dose is marked as inferred, it is not printed in the source and was worked back from the curve model. For part of these data: Drugs with an entry number were screened twice under separate entries, and the two screens often disagree.
